# Source: the supplement of paper PMC8728848
# The list shows a part of the results.
# What was measured:
# Assay in all cases: glycan array binding signal (z-score within array); higher = stronger binding
# Details in all cases: glycan notation: IUPAC condensed, linker removed
# [1] = biological target: Man(a1-2)Man(a1-3)[Man(a1-2)Man(a1-6)]Man(a1-6)[Man(a1-2)Man(a1-2)Man(a1-3)]Man
# How it was run: (§1)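 From the Consortium for Functional Glycomics database, 3228 arrays were curated, keeping only those whose protein sequence was available. Binding is given as a within-array Z-score averaged across arrays sharing a protein sequence and across linkers. Negative Z-scores can be read as non-binding.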
# [2] = biological target: Man(a1-2)Man(a1-3)[Man(a1-2)Man(a1-6)]Man(a1-6)[Man(a1-2)Man(a1-2)Man(a1-3)]Man(b1-4)GlcNAc(b1-4)GlcNAc
# How it was run: as §1
# [3] = biological target: Man(a1-2)Man(a1-3)[Man(a1-6)]Man(a1-6)[Man(a1-2)Man(a1-3)]Man(b1-4)GlcNAc(b1-4)GlcNAc
# How it was run: as §1
# [4] = biological target: Man(a1-2)Man(a1-6)[Man(a1-3)]Man(a1-6)[Man(a1-2)Man(a1-2)Man(a1-3)]Man
# How it was run: as §1
# [5] = biological target: Man(a1-2)Man(a1-6)[Man(a1-3)]Man(a1-6)[Man(a1-2)Man(a1-2)Man(a1-3)]Man(b1-4)GlcNAc(b1-4)GlcNAc
# How it was run: as §1
# Man(a1-3)[Man(a1-6)]Man = biological target: Man(a1-3)[Man(a1-6)]Man
# How it was run: as §1
# [6] = biological target: Man(a1-3)[Man(a1-6)]Man(a1-6)[Man(a1-2)Man(a1-3)]Man(b1-4)GlcNAc(b1-4)GlcNAc
# How it was run: as §1
# [7] = biological target: Man(a1-3)[Man(a1-6)]Man(a1-6)[Man(a1-3)]Man
# How it was run: as §1
# [8] = biological target: Man(a1-3)[Man(a1-6)]Man(a1-6)[Man(a1-3)]Man(b1-4)GlcNAc(b1-4)GlcNAc
# How it was run: as §1
# [9] = biological target: Man(a1-3)[Man(a1-6)]Man(b1-4)GlcNAc(b1-4)GlcNAc
# How it was run: as §1
# [10] = biological target: Man(a1-3)[Man(a1-6)]Man(b1-4)GlcNAc(b1-4)[Fuc(a1-6)]GlcNAc
# How it was run: as §1
# Man(a1-6)Man = biological target: Man(a1-6)Man
# How it was run: as §1
# Man(b1-4)GlcNAc = biological target: Man(b1-4)GlcNAc
# How it was run: as §1
# MurNAc(b1-4)GlcNAc = biological target: MurNAc(b1-4)GlcNAc
# How it was run: as §1
# Neu5Ac(a2-3)Gal = biological target: Neu5Ac(a2-3)Gal
# How it was run: as §1
# [11] = biological target: Neu5Ac(a2-3)Gal(b1-3)GalNAc
# How it was run: as §1
# [12] = biological target: Neu5Ac(a2-3)Gal(b1-3)GalNAc(b1-3)Gal(a1-4)Gal(b1-4)Glc
# How it was run: as §1
# [13] = biological target: Neu5Ac(a2-3)Gal(b1-3)GalNAc(b1-4)[Neu5Ac(a2-3)]Gal(b1-4)Glc
# How it was run: as §1
# [14] = biological target: Neu5Ac(a2-3)Gal(b1-3)GalNAc(b1-4)[Neu5Ac(a2-8)Neu5Ac(a2-3)]Gal(b1-4)Glc
# How it was run: as §1
# [15] = biological target: Neu5Ac(a2-3)Gal(b1-3)GalNAc6S
# How it was run: as §1
# [16] = biological target: Neu5Ac(a2-3)Gal(b1-3)GlcNAc
# How it was run: as §1
# [17] = biological target: Neu5Ac(a2-3)Gal(b1-3)GlcNAc(b1-2)Man
# How it was run: as §1
# [18] = biological target: Neu5Ac(a2-3)Gal(b1-3)GlcNAc(b1-2)Man(a1-3)[GlcNAc(b1-4)][Neu5Ac(a2-3)Gal(b1-3)GlcNAc(b1-2)Man(a1-6)]Man(b1-4)GlcNAc(b1-4)GlcNAc
# How it was run: as §1
# [19] = biological target: Neu5Ac(a2-3)Gal(b1-3)GlcNAc(b1-2)Man(a1-3)[Neu5Ac(a2-3)Gal(b1-3)GlcNAc(b1-2)Man(a1-6)]Man(b1-4)GlcNAc(b1-4)GlcNAc
# How it was run: as §1
# [20] = biological target: Neu5Ac(a2-3)Gal(b1-3)GlcNAc(b1-2)[Neu5Ac(a2-3)Gal(b1-3)GlcNAc(b1-4)]Man(a1-6)[Neu5Ac(a2-3)Gal(b1-3)GlcNAc(b1-2)Man(a1-3)]Man(b1-4)GlcNAc(b1-4)GlcNAc
# How it was run: as §1
# [21] = biological target: Neu5Ac(a2-3)Gal(b1-3)GlcNAc(b1-3)Gal(b1-3)GlcNAc
# How it was run: as §1
# [22] = biological target: Neu5Ac(a2-3)Gal(b1-3)GlcNAc(b1-3)Gal(b1-4)GlcNAc
# How it was run: as §1
# [23] = biological target: Neu5Ac(a2-3)Gal(b1-3)GlcNAc(b1-3)GalNAc
# How it was run: as §1
# [24] = biological target: Neu5Ac(a2-3)Gal(b1-3)GlcNAc(b1-4)Gal(b1-4)Glc
# How it was run: as §1
# [25] = biological target: Neu5Ac(a2-3)Gal(b1-3)GlcNAc(b1-6)GalNAc
# How it was run: as §1
# [26] = biological target: Neu5Ac(a2-3)Gal(b1-3)GlcNAc6S
# How it was run: as §1
# [27] = biological target: Neu5Ac(a2-3)Gal(b1-3)[Fuc(a1-4)]GlcNAc
# How it was run: as §1
# [28] = biological target: Neu5Ac(a2-3)Gal(b1-3)[Fuc(a1-4)]GlcNAc(b1-3)Gal(b1-3)[Fuc(a1-4)]GlcNAc
# How it was run: as §1
# [29] = biological target: Neu5Ac(a2-3)Gal(b1-3)[Fuc(a1-4)]GlcNAc(b1-3)Gal(b1-4)[Fuc(a1-3)]GlcNAc
# How it was run: as §1
# [30] = biological target: Neu5Ac(a2-3)Gal(b1-3)[GlcNAc(b1-6)]GalNAc
# How it was run: as §1
# [31] = biological target: Neu5Ac(a2-3)Gal(b1-3)[Neu5Ac(a2-6)]GalNAc
# How it was run: as §1
# [32] = biological target: Neu5Ac(a2-3)Gal(b1-3)[Neu5Ac(a2-6)]GlcNAc(b1-3)[Fuc(a1-3)[Gal(b1-4)]GlcNAc(b1-6)]Gal(b1-4)Glc
# How it was run: as §1
# [33] = biological target: Neu5Ac(a2-3)Gal(b1-3)]Neu5Ac(a2-3)Gal(b1-4)]GlcNAc
# How it was run: as §1
# Neu5Ac(a2-3)Gal(b1-4)Glc = biological target: Neu5Ac(a2-3)Gal(b1-4)Glc
# How it was run: as §1
# [34] = biological target: Neu5Ac(a2-3)Gal(b1-4)GlcNAc
# How it was run: as §1
# [35] = biological target: Neu5Ac(a2-3)Gal(b1-4)GlcNAc(b1-2)Man
# How it was run: as §1
# [36] = biological target: Neu5Ac(a2-3)Gal(b1-4)GlcNAc(b1-2)Man(a1-3)[GlcNAc(b1-4)][Neu5Ac(a2-3)Gal(b1-4)GlcNAc(b1-2)Man(a1-6)]Man(b1-4)GlcNAc(b1-4)GlcNAc
# How it was run: as §1
# [37] = biological target: Neu5Ac(a2-3)Gal(b1-4)GlcNAc(b1-2)Man(a1-3)[Neu5Ac(a2-3)Gal(b1-4)GlcNAc(b1-2)Man(a1-6)]Man(b1-4)GlcNAc(b1-4)GlcNAc
# How it was run: as §1
# [38] = biological target: Neu5Ac(a2-3)Gal(b1-4)GlcNAc(b1-2)Man(a1-3)[Neu5Ac(a2-3)Gal(b1-4)GlcNAc(b1-2)Man(a1-6)]Man(b1-4)GlcNAc(b1-4)[Fuc(a1-6)]GlcNAc
# How it was run: as §1
# [39] = biological target: Neu5Ac(a2-3)Gal(b1-4)GlcNAc(b1-2)Man(a1-3)[Neu5Ac(a2-6)Gal(b1-4)GlcNAc(b1-2)Man(a1-6)]Man(b1-4)GlcNAc(b1-4)GlcNAc
# How it was run: as §1
binder,measurement,setting,value
FGFR2-Fc (protein) MVNVTDAISSGDDEDDTDGAEDFVSENSNNKRAPYWTNTEKMEKRLHAVPAANTVKFRCPAGGNPMPTMRWLKNGKEFKQEHRIGGYKVRNQHWSLIMESVVPSDKGNYTCVVENEYGSINHTYHLDVVERSPHRPILQAGLPANASTVVGGDVEFVCKVYSDAQPHIQWIKHVEKNGSKYGPDGLPYLKVLKHSGINSSNAEVLALFNVTEADAGEYICKVSNYIGQANQSAWLTVLPKQQAPGREKEITASPDYLETRPLEQKLISEEDLAANDILDYKDDDDKV,glycan array binding signal (z-score),[1],-0.185
same,glycan array binding signal (z-score),[2],0.398
same,glycan array binding signal (z-score),[3],-0.644
same,glycan array binding signal (z-score),[4],-0.648
same,glycan array binding signal (z-score),[5],-0.513
same,glycan array binding signal (z-score),Man(a1-3)[Man(a1-6)]Man,0.275
same,glycan array binding signal (z-score),[6],-0.061
same,glycan array binding signal (z-score),[7],0.011
same,glycan array binding signal (z-score),[8],-0.189
same,glycan array binding signal (z-score),[9],-0.406
same,glycan array binding signal (z-score),[10],-0.128
same,glycan array binding signal (z-score),Man(a1-6)Man,-0.346
same,glycan array binding signal (z-score),Man(b1-4)GlcNAc,0.038
same,glycan array binding signal (z-score),MurNAc(b1-4)GlcNAc,0.08
same,glycan array binding signal (z-score),Neu5Ac(a2-3)Gal,-0.402
same,glycan array binding signal (z-score),[11],0.247
same,glycan array binding signal (z-score),[12],-0.394
same,glycan array binding signal (z-score),[13],-0.453
same,glycan array binding signal (z-score),[14],-0.349
same,glycan array binding signal (z-score),[15],-0.172
same,glycan array binding signal (z-score),[16],0.268
same,glycan array binding signal (z-score),[17],-0.383
same,glycan array binding signal (z-score),[18],0.046
same,glycan array binding signal (z-score),[19],-0.602
same,glycan array binding signal (z-score),[20],0.32
same,glycan array binding signal (z-score),[21],-0.428
same,glycan array binding signal (z-score),[22],0.422
same,glycan array binding signal (z-score),[23],-0.411
same,glycan array binding signal (z-score),[24],-0.36
same,glycan array binding signal (z-score),[25],-0.13
same,glycan array binding signal (z-score),[26],0.227
same,glycan array binding signal (z-score),[27],-0.042
same,glycan array binding signal (z-score),[28],-0.001
same,glycan array binding signal (z-score),[29],-0.139
same,glycan array binding signal (z-score),[30],-0.365
same,glycan array binding signal (z-score),[31],-0.447
same,glycan array binding signal (z-score),[32],0.595
same,glycan array binding signal (z-score),[33],-0.115
same,glycan array binding signal (z-score),Neu5Ac(a2-3)Gal(b1-4)Glc,0.682
same,glycan array binding signal (z-score),[34],-0.147
same,glycan array binding signal (z-score),[35],0.836
same,glycan array binding signal (z-score),[36],0.136
same,glycan array binding signal (z-score),[37],0.035
same,glycan array binding signal (z-score),[38],0.282
same,glycan array binding signal (z-score),[39],-0.022
